Data reported in PubChem BioAssay AID485294 (National Center for Advancing Translational Sciences (NCATS), 2010).
Hit rate of the full screen: of about 370,000 compounds, about 150 (0.041%) were called active. This list was built around the results that the source calls inconclusive (neither active nor inactive); the mix of calls is not that of the screen. Calls follow the shape of the dose curve; as a rule, active = well fitted inhibition curve with a large enough effect; inconclusive = small, poorly fitted or top-dose-only effect; inactive = flat fitted curve, though single readings scatter. No potency is given beside an inconclusive call; the fits are too rough.

The molecules below were run against Beta-lactamase (Escherichia coli (strain K12)) (UniProt P00811) (assay: qHTS Inhibitors of AmpC Beta-Lactamase (assay with detergent)). Conditions: AmpC hydrolysis of nitrocefin, absorbance 480 nm, 0.01% Triton; series mostly up to 114 µM.
In short: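 20 mM phosphate pH 7.0 + 0.01% (detergent screen) or 0.0001% Triton X-100; 5.3 nM AmpC reagent; cpd preinc 15 min RT; nitrocefin (800 uM stock) to start; A480 q20 s × 4 min; Activity was normalised to no-enzyme and no-compound control wells.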
Also: nearly all actives have a fitted effect of over 25% in size.
Potency is read from the fitted curve at half-maximal effect; tags tell the direction and shape of the fitted curve.

UniProt P00811, sequence (P00811 whole entry, looked up): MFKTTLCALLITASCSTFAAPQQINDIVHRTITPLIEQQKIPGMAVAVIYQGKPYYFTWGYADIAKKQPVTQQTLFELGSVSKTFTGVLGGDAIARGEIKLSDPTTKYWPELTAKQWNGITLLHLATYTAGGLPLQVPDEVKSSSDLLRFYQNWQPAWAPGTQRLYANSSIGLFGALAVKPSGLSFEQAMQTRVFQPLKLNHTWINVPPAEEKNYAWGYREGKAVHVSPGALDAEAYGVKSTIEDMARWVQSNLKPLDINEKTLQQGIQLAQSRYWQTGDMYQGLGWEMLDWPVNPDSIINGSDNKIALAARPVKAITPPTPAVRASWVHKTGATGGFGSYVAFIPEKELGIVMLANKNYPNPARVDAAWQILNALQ

Row | SMILES | Potency
1 | O=C(c1ccncc1)N1CCN(C(=O)c2ccncc2)CC1 | inconclusive [inhibitor, full curve, poor fit]
2 | Nc1ccccc1-c1nc2ccccc2c(=O)o1 | inconclusive [inhibitor, partial curve, poor fit]
3 | CCOc1cc(/C=N\NC(=O)c2ccc(C)nc2)cc([N+](=O)[O-])c1O | inconclusive [inhibitor, full curve, poor fit]
4 | COc1ccc(S(=O)(=O)NCCC(C)C)cc1C | inconclusive [inhibitor, single point]
5 | CCCNC(=S)Nc1ccc2nc(-c3ccccn3)c(-c3ccccn3)nc2c1 | inactive
6 | O=[N+]([O-])c1ccc(-c2nc3ccc([N+](=O)[O-])cc3[nH]2)cc1 | inconclusive [inhibitor, partial curve]
7 | N#C/C(=C\c1cn[nH]c1-c1ccc(Cl)cc1)C(=O)NC1CC1 | inconclusive [inhibitor, single point]
8 | COc1cc(OC)c(Nc2nc3ccc(C(=O)c4ccccc4)cc3n3c(C)nnc23)cc1Cl | inactive
9 | COc1ccc(-n2nc(C(=O)NCC(=O)N3CCC(C(N)=O)CC3)c3ccccc3c2=O)cc1 | inconclusive [inhibitor, full curve, poor fit]
10 | O=C(Nc1ccc2c(c1)CCCN2C(=O)c1cccs1)c1ccccc1Cl | inactive
11 | COc1ccc(S(=O)(=O)N2Cc3ccccc3CC2C(=O)Nc2nccs2)cc1OC (centres undefined) | inconclusive [inhibitor, partial curve, poor fit]
12 | Cc1cccc(Cn2c(N3CCN(c4ccccc4)CC3)nc3c2c(=O)n(C)c(=O)n3C)c1 | inconclusive [inhibitor, full curve]
13 | Clc1ccc(-c2noc3ncnc(NCCc4ccccc4)c23)cc1 | inactive
14 | O=C(Cn1nc(-c2ccccc2)ccc1=O)NCc1ccc2c(c1)OCO2 | inconclusive [inhibitor, single point]
15 | CCOc1ccc2nc(SCC(=O)c3ccccc3)sc2c1 | inconclusive [inhibitor, full curve, poor fit]
16 | FC(F)(F)c1cc(-c2ccccc2)nc(N2CCCCC2)n1 | inactive
17 | O=C(c1ccc(Cl)c(F)c1F)N1CCOCC1 | inconclusive [inhibitor, full curve, poor fit]
18 | Cc1c(Cl)cccc1N1C(=O)CC(N(O)c2ccccc2)C1=O (centres undefined) | inconclusive [inhibitor, full curve]
19 | COc1ccc(NC(=O)NCc2ccc3c(c2)OCO3)cc1OC | inconclusive [inhibitor, full curve]
20 | CCCc1cc(=O)n2[nH]c(-c3ccc(OC)cc3)nc2n1 | inconclusive [inhibitor, full curve, poor fit]
21 | COc1ccc(-n2nc3c(c2NC(=O)COc2cccc(OC)c2)CS(=O)(=O)C3)cc1 | inconclusive [inhibitor, single point]
22 | Nc1nc(-c2ccc(-c3ccccc3)cc2)cs1 | inactive
23 | COc1cccc(NC(=O)CN(C)C(=O)c2oc3c(ccc4ccccc43)c2C)c1 | inconclusive [inhibitor, full curve, poor fit]

Row | SMILES | Potency
24 | CC(C)CC(NC(N)=O)C(=O)OCC(=O)Nc1ccc(OC(F)F)cc1 (centres undefined) | inconclusive [inhibitor, partial curve, poor fit]
25 | O=S(=O)(c1cnc(Cl)c(Cl)c1)N1CCCc2ccccc21 | inactive
26 | CCc1ccc(NC(=O)c2cnc(SC)nc2C)cc1 | inactive
27 | O=C(Cn1c(=O)nc(-c2ccccc2)c2cc(Cl)ccc21)N1CCN(c2ccc(F)cc2)CC1 | inactive
28 | O=C(COC(=O)CCS(=O)(=O)c1ccc(F)cc1)NC1CCCCC1 | inconclusive [inhibitor, full curve, poor fit]
29 | Cc1ccc2sc(NC(=O)CN3C(=O)CCC3=O)nc2c1C | inconclusive [inhibitor, partial curve, poor fit]
30 | CC(C)CC1(C)NC(=O)N(CCN2C(=O)c3ccccc3C2=O)C1=O (centres undefined) | inconclusive [inhibitor, full curve, poor fit]
31 | COc1ccc(N(C(=O)C(C)C)S(=O)(=O)c2ccc(Cl)cc2)cc1 | inconclusive [inhibitor, full curve, poor fit]
32 | CSCc1ccc(C(=O)N2CCC(N3CCC(C(=O)NC(C)C)CC3)CC2)o1 | inconclusive [inhibitor, full curve, poor fit]
33 | Cc1ccc2c(c1)C1CCCC3C1N2CC(=O)N3Cc1ccccc1 (centres undefined) | inconclusive [inhibitor, single point]
34 | CC(=O)CSc1nnc2[nH]c(=O)cc(N)n12 | inactive
35 | CC1CC(Nc2ccccc2)=NC1(C)C (centres undefined) | inconclusive [inhibitor, full curve, poor fit]
36 | Cc1cccc(OCc2nnc(SCn3nnc4ccccc4c3=O)o2)c1 | inconclusive [inhibitor, single point]
37 | Cc1ccc(-c2[nH]c(-c3ccc(C(=O)O)cc3)nc2-c2ccccc2)cc1 | inactive
38 | O=C(CNC(=O)/C(=C\c1ccc(Br)cc1)NC(=O)c1ccccc1)OCc1ccccc1 | inactive
39 | CC(NC(=O)CN1C(=O)NC(C)(C2CC2)C1=O)c1ccc(F)cc1 (centres undefined) | inconclusive [inhibitor, partial curve]
40 | CC(C)CC1NC(=O)N(CC(=O)Nc2ccc3c(c2)CCC3)C1=O (centres undefined) | inactive
41 | Nc1ccc(-c2nc3ccc(-c4nc5ccccc5o4)cc3[nH]2)cc1 | inconclusive [inhibitor, partial curve, poor fit]
42 | Cc1ccccc1NC(=O)Cc1nc(COC(=O)CNS(=O)(=O)c2cccc(Br)c2)cs1 | inactive
43 | CCOC(=O)c1c(C)[nH]c(C)c1S(=O)(=O)N(C)CC(=O)Nc1ccc(C)cc1C | inactive
44 | COc1cccc(/C=C2\SC(=O)N(CCC(=O)NNC(=O)c3ccccc3Cl)C2=O)c1 | inconclusive [inhibitor, full curve, poor fit]
45 | CC(=O)c1c(C)[nH]c(C(=O)NCCN2CCC(C)CC2)c1C | inconclusive [inhibitor, partial curve, poor fit]
46 | Cc1[nH]c(=O)[nH]c(=O)c1/C=N/NC(=O)[C@@H](NC(=O)OC(C)(C)C)C(C)C | inconclusive [inhibitor, single point]

Row | SMILES | Potency
47 | COc1ccc(/C(C)=N/Nc2ccc(F)cc2F)c(O)c1 | inactive
48 | CCCCNC(c1ccccc1)c1ccncc1 (centres undefined) | inconclusive [inhibitor, partial curve, poor fit]
49 | Cc1ccc(N2C(=O)/C(=C/c3ccco3)SC2=S)cc1 | inconclusive [inhibitor, partial curve, poor fit]
50 | CN1CCN(C(=S)c2ccc(-c3cccc(Cl)c3Cl)o2)CC1 | inconclusive [inhibitor, partial curve]
51 | COc1ccc(-c2csc(N)n2)cc1 | inconclusive [inhibitor, partial curve, poor fit]
52 | CCOC(=O)C1=C(c2ccccc2)Nc2ncnn2C1c1cc(OC)cc(OC)c1OC (centres undefined) | inconclusive [inhibitor, partial curve]
53 | Cc1ccc(NC(=O)c2ccc(OC(F)F)cc2)cc1S(=O)(=O)N(C)C | inconclusive [inhibitor, partial curve, poor fit]
54 | CCC1(C)OCC(Cn2c3ccccc3c3ccccc32)O1 (centres undefined) | inconclusive [inhibitor, partial curve, poor fit]
55 | Fc1ccc(-c2ccc(CNCc3ccccn3)o2)cc1 | inconclusive [inhibitor, full curve]
56 | CCOc1ccc(-n2nc3ccc(NC(=O)c4ccc5c(c4)OCCO5)cc3n2)cc1 | inactive
57 | COC(=O)COc1ccc(S(=O)(=O)N2CCN(c3ccccc3)CC2)cc1 | inactive
58 | O=C(CSc1nnc(-c2c[nH]c3ccccc23)o1)NCC1CCCO1 (centres undefined) | inactive
59 | Fc1ccc(-c2noc3ncnc(NCc4ccc(Cl)cc4)c23)cc1 | inactive
60 | Cc1ccn2c(=O)nc(SCC(=O)NCc3ccccc3)nc2c1 | inconclusive [inhibitor, full curve]
61 | CCC(Sc1nc(-c2ccccc2F)nc2c1Cc1c(CO)cnc(C)c1O2)C(=O)Nc1cc(C)ccc1C (centres undefined) | inactive
62 | COC(=O)c1sccc1OC(C)C(C)=O (centres undefined) | inconclusive [inhibitor, full curve, poor fit]
63 | N#CC1(c2c(O)nc3n(c2=O)CCCS3)CCCCC1 | inconclusive [inhibitor, full curve, poor fit]
64 | O=C(N/N=C/c1cccs1)c1ccccn1 | inactive
65 | COc1ccc(OCC(NS(=O)(=O)c2ccc(-n3cnnn3)cc2)C(C)C)cc1 (centres undefined) | inconclusive [inhibitor, full curve, poor fit]
66 | CCCc1ccc(-c2cc(C(=O)N/N=C/c3ccc([N+](=O)[O-])o3)c3ccccc3n2)cc1 | inactive
67 | OC(CNC1Cc2ccccc2C1)c1ccccc1 (centres undefined) | inactive
68 | Cc1ccccc1NS(=O)(=O)c1cc(C(N)=O)ccc1C | inconclusive [inhibitor, full curve, poor fit]
69 | O=C(NC(=S)Nc1ccc(S(=O)(=O)N2CCCCC2)cc1)c1ccccc1 | inconclusive [inhibitor, full curve, poor fit]
